± gives the standard error. This sample is rich in variants without activity.
B1: glmS ribozyme (parent)
chain: AUAAAAGCGCCAGAACUACAGAAAUGUAGUUGACGAGGAGGAGGUUUAUCGAAUUUUCGGCGGAUGCCUCCAAA

Key:
Details in all cases: with glucosamine-6-phosphate
glucosamine-6-phosphate [1] = variants of: B1; experiment: self-cleavage kobs at 40 uM GlcN6P; higher = faster cleavage; RNA array
How it was run: (§1)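 The measurements used barcoded ribozyme variants on sequenced MiSeq chips, transcribed in situ by E. coli RNA polymerase and tracked at 37 °C with a hybridised Cy3 probe. Glucosamine-6-phosphate, 40 μM to 10 mM in HEPES/KCl/Mg(OAc)2 buffer, was flowed in while tiles were imaged over ~14 h. Baseline-normalised signals, also normalised to non-cleaving reference variants, gave per-tile medians that were fit to one- or two-exponential decays for kobs. kcat and KM resulted from weighted Michaelis–Menten fits across concentrations.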

glucosamine-6-phosphate [2] = variants of: B1; experiment: self-cleavage kobs at 160 uM GlcN6P; higher = faster cleavage; RNA array
How it was run: as §1

glucosamine-6-phosphate [3] = variants of: B1; experiment: self-cleavage kobs at 2500 uM GlcN6P; higher = faster cleavage; RNA array
How it was run: as §1

glucosamine-6-phosphate [4] = variants of: B1; experiment: self-cleavage kobs at 640 uM GlcN6P; higher = faster cleavage; RNA array
How it was run: as §1

glucosamine-6-phosphate [5] = variants of: B1; experiment: self-cleavage kobs at 10000 uM GlcN6P; higher = faster cleavage; RNA array
How it was run: as §1

Variant	self-cleavage kobs at 40 uM GlcN6P (glucosamine-6-phosphate [1])	self-cleavage kobs at 160 uM GlcN6P (glucosamine-6-phosphate [2])	self-cleavage kobs at 2500 uM GlcN6P (glucosamine-6-phosphate [3])	self-cleavage kobs at 640 uM GlcN6P (glucosamine-6-phosphate [4])	self-cleavage kobs at 10000 uM GlcN6P (glucosamine-6-phosphate [5])
AUAAAAGCCCCAGAACUACAGAAAUGUAGUUGGCGAGGAGGAGGUUUAUCGAAUUUUCGGCGGAUGCCUCCAAA [G9C A33G]	< 1e-05 s⁻¹	< 1e-05 s⁻¹	< 1e-05 s⁻¹		
AUAAAAGUGCCAGAACUACAGAAAUGUAGUCGACGAGGAGGAGGUUUAUCGUAAUUUCGGAGGAUGCCUCCAAA [C8U U31C A52U U54A C61A]	< 1e-05 s⁻¹				
AUAAAAGCACCAGCACUACAGAAAUGUAGUUGACGAGGAGGAGGUUUAUCGAAAUUUCGGCGGAUGGCUCCAAA [G9A A14C U54A C67G]	< 1e-05 s⁻¹				
AUAAAAGCACCAGAACUACAGAAAUGUAGUUGACGAGGAGGAGGUUUAUCGAAUUUUCGGCGGUUGCCUCCAAA [G9A A64U]	< 1e-05 s⁻¹			< 1e-05 s⁻¹	
AUAAAAGCACCAGAACUACAGAAAUGUAGUUGACGAGGAGGACGUUUAUCGAAUUUUCGGCGGAUGCCUCAAAA [G9A G43C C71A]	< 1e-05 s⁻¹	< 1e-05 s⁻¹		< 1e-05 s⁻¹	
AUAAAAGUGCCAUAACUACAGAAAUGUAGUUGACGAGGAGGAGGUAUAUAGAAUUUUCAGCGGAUGCGUCCAAA [C8U G13U U46A C50A G59A C68G]	< 1e-05 s⁻¹	< 1e-05 s⁻¹	< 1e-05 s⁻¹	< 1e-05 s⁻¹	
AUAAAAGCACCAGAACUACAGAAAUGUAGUUGACGAGGAGGAGGUUUAGCGAAUUUUCGGCGGAUGCCUCCAAA [G9A U49G]	< 1e-05 s⁻¹	< 1e-05 s⁻¹	< 1e-05 s⁻¹	< 1e-05 s⁻¹	
AUAAAAGUGCCAGAACUACAGAAAUGUAGAUGACGAGGAGGAGGUUUAUCGAAUUUUCGGCGGAUGCCUCCAAA [C8U U30A]	< 1e-05 s⁻¹	< 1e-05 s⁻¹	< 1e-05 s⁻¹	< 1e-05 s⁻¹	
AUAAAAGCACCAGAACUACAGAAAUGUAGUUGACGAGGAGGAGGUCUAUCGAAUUUUCGGCGGAUGCCUCCAAA [G9A U46C]	< 1e-05 s⁻¹	< 1e-05 s⁻¹	< 1e-05 s⁻¹		< 1e-05 s⁻¹
AUAAAAGUGCCAGAACUACAGAAAUGUAGUUGACGAGGAGGAGUUUUAUCGAAUUUUCGGCGCAUGCCUCCAAA [C8U G44U G63C]	< 1e-05 s⁻¹				
AUAAAAGCACCAGAAUUACAGAAAUGUAGUUGACGAGGAGGAGGUUUAUCGAAUUUUCGGCGGAUGCCUCCAAA [G9A C16U]	< 1e-05 s⁻¹	< 1e-05 s⁻¹	< 1e-05 s⁻¹	< 1e-05 s⁻¹	3.09e-05 ± 1.5e-05 s⁻¹
AUAAAAGUGCCAGAACUACAGAAAUGUAGUUGACGAGGAGGAGGUUUAUCGAAUUUUCGACGGAUGCCUCCAAA [C8U G60A]	< 1e-05 s⁻¹	< 1e-05 s⁻¹	< 1e-05 s⁻¹	< 1e-05 s⁻¹	< 1e-05 s⁻¹
AUAAAAGCACCAGAACUACAGAAAUGUAGUUGACGAGGACGAGGUUUAUCGAAUUUUCGGCGGAUGCCUCCAAA [G9A G40C]	< 1e-05 s⁻¹				
AUAAAAGUGCCAGAACUACAGAAAUGUACUUGACGAGGAGUAGGUUUAUCGAAUUUUCGGCGGAUGCCUCCAAA [C8U G29C G41U]	< 1e-05 s⁻¹				
AUAAAAGCACCCGAUCUACAGAAAUGUAGUUGACGAGGAGGAGGUUUAUCGAAUUUUGGGCGGAUGCCUCCAAA [G9A A12C A15U C58G]	< 1e-05 s⁻¹				
AUAAAAGUGCCAGAACUACAGAAAUGUAGUUGACGAGGAGGAGGUUUAUCGAAUUUUCGGCAGAUGCCUCCAAA [C8U G62A]	< 1e-05 s⁻¹	< 1e-05 s⁻¹			7.26e-05 ± 1.2e-05 s⁻¹

Variant	self-cleavage kobs at 40 uM GlcN6P (glucosamine-6-phosphate [1])	self-cleavage kobs at 160 uM GlcN6P (glucosamine-6-phosphate [2])	self-cleavage kobs at 2500 uM GlcN6P (glucosamine-6-phosphate [3])	self-cleavage kobs at 640 uM GlcN6P (glucosamine-6-phosphate [4])	self-cleavage kobs at 10000 uM GlcN6P (glucosamine-6-phosphate [5])
AUAAAAGCACCAGAACUACAGAAAUGUAGCCGACGAGGAGGAGGUUUAUAGAAUUUUCGGCGGAUGCCUCCAAA [G9A U30C U31C C50A]	< 1e-05 s⁻¹	< 1e-05 s⁻¹		< 1e-05 s⁻¹	< 1e-05 s⁻¹
AUAAAAGCACCAAAACUACAGAAAUGUAGUUGACGAGGAGGAGGUUUAUCGAAUUUUUGGCGGAUUCCUCAAAA [G9A G13A C58U G66U C71A]	< 1e-05 s⁻¹				
AUAAAAGUGCCAGAACUACAGAAAUGUAGUUGACUAGGUGGAUGUUUAUCGAAUUUUCGGCGGAUGCCUCCAAA [C8U G35U A39U G43U]	< 1e-05 s⁻¹			< 1e-05 s⁻¹	
AUAAAAGCACCAGAACUACAGAAAUGUAGUUAACGAGGAGGUGGGUUAACGAAUUUUCGGCGGAUGCCUCCAAA [G9A G32A A42U U45G U49A]	< 1e-05 s⁻¹				< 1e-05 s⁻¹
AUAAAAGCACCAGAACUACAGAAAUGUAGUUGACGAAGAGGAGGUUUAUCGAAUUUUCCGCGGAUGCCUCCAAA [G9A G37A G59C]	< 1e-05 s⁻¹		< 1e-05 s⁻¹		
AUAAAAGCACCAGAACUACAGAAAUGUAGUUGACGAGGAGGAGGUUUAUCGAAUUUUCGCCGGAUGCCUCCAAA [G9A G60C]	< 1e-05 s⁻¹	< 1e-05 s⁻¹	< 1e-05 s⁻¹	< 1e-05 s⁻¹	
AUAAAAGCACCAGAACUACAGAAAUGUAGUUGACGAGGAGGAGGUUUAUCGAAUUUUCGUCGGAUGCCUCCAAA [G9A G60U]	< 1e-05 s⁻¹		< 1e-05 s⁻¹	< 1e-05 s⁻¹	< 1e-05 s⁻¹
AUAAAAGUGCCAGAACUACAGAAAUGUAGUUGACGACGAGAAGGUUUAUCGAAUUUUCGACGGAUGCCUCCAAA [C8U G37C G41A G60A]	< 1e-05 s⁻¹				
AUAAAAGCACCAGAACUACAGAAAUGUAGUUGACGAGGAGGAGGUUUAUCGAAUUUUCGGCGGAUGCUUCCAAA [G9A C68U]	< 1e-05 s⁻¹	< 1e-05 s⁻¹	< 1e-05 s⁻¹	< 1e-05 s⁻¹	< 1e-05 s⁻¹
AUAAAAGCACCAGAACUACAGAAAUGUAGUUGACGAGGAGGAAGUUUAUCGAUUUUUCGGCGGAUGCCUCCAAA [G9A G43A A53U]	< 1e-05 s⁻¹				
AUAAAAGCCCCUGAACUACAGAAAUGUAGUUGACGAGGAGGAGGUUUAUCGGACUUUCGGCGGAUGUCUCCAAA [G9C A12U A52G U54C C67U]	< 1e-05 s⁻¹				
AUAAAAGCACCAGAACUACAGAAAUGUACUUGACGAGGAGGAGGUUUAUCGAAUUUUCGGCGGAUGCCUCCAAA [G9A G29C]	< 1e-05 s⁻¹				
AUAAAAGCACCAGAACUACAGAAAUGUAGUUGACGAGGAGGAGGUUUAUCAAAUUUUCGGCGGAUGCCUCCAAA [G9A G51A]	< 1e-05 s⁻¹				
AUAAAAGCACCAGAACUACAGAAAUGUAGUUGACGCGGAGGAGGUUUAUCGAAUUUUCGGCGGAUGCCUCCAAA [G9A A36C]	< 1e-05 s⁻¹	< 1e-05 s⁻¹			
AUAAAAGCCCCCGGGCUACAGAAAUGUAGUUGACGAGGAGGCGGUUUAUCGAAUUUUCGGCUGAUGCCUCCAAA [G9C A12C A14G A15G A42C G62U]	< 1e-05 s⁻¹			< 1e-05 s⁻¹	

— the supplement of paper PMC7125110
